Experimental findings from PubChem BioAssay AID1159614 (National Center for Advancing Translational Sciences (NCATS), 2016) are described below.

In all, about 45,000 compounds went through this assay and about 65 (0.1%) were called active. The call rests on the fitted dose curve; in most records, active means well fitted activation curve with a large enough effect; inconclusive means small, poorly fitted or top-dose-only effect; inactive means no such curve, though single readings can be large or run the other way. The list shows a part of the results. Peptide text beside a SMILES is read from it.

Chain of UniProt P54803 (P54803 whole entry, looked up): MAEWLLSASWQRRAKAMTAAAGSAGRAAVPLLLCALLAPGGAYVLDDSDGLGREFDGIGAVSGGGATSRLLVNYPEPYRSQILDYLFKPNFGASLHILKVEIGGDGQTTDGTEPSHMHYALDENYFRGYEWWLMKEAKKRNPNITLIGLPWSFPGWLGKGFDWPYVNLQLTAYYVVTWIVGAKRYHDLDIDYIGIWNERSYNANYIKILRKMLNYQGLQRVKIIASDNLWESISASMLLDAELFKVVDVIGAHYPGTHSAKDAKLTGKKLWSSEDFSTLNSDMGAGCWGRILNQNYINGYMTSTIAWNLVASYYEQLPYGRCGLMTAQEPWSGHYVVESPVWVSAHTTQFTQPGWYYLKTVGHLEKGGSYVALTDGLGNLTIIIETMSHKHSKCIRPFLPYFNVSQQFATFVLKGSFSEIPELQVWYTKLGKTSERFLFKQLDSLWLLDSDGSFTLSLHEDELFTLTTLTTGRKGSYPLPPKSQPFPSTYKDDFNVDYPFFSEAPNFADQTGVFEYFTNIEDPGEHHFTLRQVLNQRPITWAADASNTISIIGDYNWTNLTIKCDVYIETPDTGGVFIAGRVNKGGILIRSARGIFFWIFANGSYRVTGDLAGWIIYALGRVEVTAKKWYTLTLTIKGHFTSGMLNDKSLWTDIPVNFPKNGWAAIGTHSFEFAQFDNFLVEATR

This test has as its target Galactocerebrosidase (Homo sapiens) (UniProt P54803). Description: A Novel Cell-Based Assay to Identify Small Molecules for B -Galactocerebrosidase. Further: 0% is about no effect; nearly all actives have a fitted effect of over 65% in size. The note with it: 145M-Twi-hGALC-G270D cells (Twitcher mouse brain line with human GALC G270D), HMU-beta-Gal fluorescence, 48 h; series mostly up to 57.5 µM; activation: at the top concentration. The procedure, abridged:
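Brain-derived Twitcher mouse 145M-Twi cells stably expressing human GALC-G270D or wild-type GALC, treated live, then residual GALC activity read by fluorescence of HMU-b-Gal substrate (0.1 mM final) in citrate-phosphate buffer pH 5.2 with sodium taurocholate. Signal increase indicates enhancement.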
As to `Cc1ccc(C)c(Cn2c(=O)n(Cc3ccccc3)c(=O)c3c(C)c(C)sc32)c1`, the “activation” value is inactive: -7.06%.

Turning to `CCc1ccc(CN(Cc2ccco2)C(=O)c2ccccc2Cl)cc1`, the “activation” value was inactive: -5.64%. Turning to `CCc1ccccc1NC(=O)Nc1nnc(N2CCCC2)s1`, the “activation” value was inactive: -21.5%. The figure for `COc1ccc(CCNC(=O)c2nn(-c3ccc(C)cc3)c(=O)c3c2c2ccccc2n3C)cc1OC` is inactive: -4.07%; for `O=C(CC1N=C2c3ccccc3N=C(SCC(=O)Nc3cccc(C(F)(F)F)c3)N2C1=O)NCc1cccs1` (stereo not given) it is inactive: -18.2%. The figure for `Cc1ccc(C)c(N2CCN(S(=O)(=O)c3ccc4oc(=O)c5ncn(C)c5c4c3)CC2)c1` is inactive: -12.2%; for `Cc1ccc(C(=O)COC(=O)c2cc(-c3ccccc3)nc3ccccc23)cc1C` it is inactive: 6.13%; for `COc1cc(NC(=O)Cn2c(=O)n(Cc3ccccc3OC)c(=O)c3cccnc32)cc(OC)c1` it is inactive: 2.59%. The figure for `CCCNC(=O)c1ccc2c(c1)N(Cc1cccc(C)c1)C(=O)c1ccccc1S2` is inactive: 5.42%; for `Cc1ccc(S(=O)(=O)c2nnn3c2nc(NCc2ccc(F)cc2)c2sccc23)cc1` it is inactive: -1.79%; for `COc1ccc(NC(=O)CCN2CCN(c3cccc(Cl)c3)CC2)cc1` it is inactive: -11.1%.

As to `COc1cccc(CNC(=O)c2c(C)nn(-c3cccc(C)c3)c2-n2cccc2)c1`, the “activation” value is inactive: 2.18%. In the case of `O=C(NCCCc1ccccc1)c1nn(-c2ccccc2F)nc1CO`, the “activation” value is inactive: -2.23%. With `CCN(CC)CCNC(=O)c1cc(S(C)(=O)=O)ccc1OC`, the “activation” value is inactive: -18.2%. Consider `O=C(NC(=O)c1cccc(F)c1)Nc1ccc(-c2cc(C(F)(F)F)nn2-c2ccccc2)cc1`, for which the “activation” value was inactive: -22.4%. For `CC(=O)c1ccc(NC(=O)C2CCC(CNS(=O)(=O)c3ccc(Br)s3)CC2)cc1` (stereo not given) the value was inactive: -12.7%; for `Cc1nc(-c2ccc(C)c(N3CCN(C(=O)Nc4ccccc4C(F)(F)F)CC3)c2)no1`, inactive: -6.4%. For `O=C(NCCc1ccccc1)c1ccc(CSc2nc3cccnc3n2Cc2ccc(F)cc2)cc1` the value was inactive: -5.5%. For `COC(=O)c1ccc(NC(=O)C2(S(=O)(=O)c3ccc(C)cc3)CC2)cc1` the value was inactive: -16.2%. As for `Cc1ccc(C(=O)Nc2nnc(S(=O)(=O)N3CCOCC3)s2)cc1`, the “activation” value was inactive: -18.2%. The figure for `O=C(NCc1ccc(F)cc1)C1CCN(C(=O)c2ccc(-n3ccc4ccccc43)s2)CC1` is inactive: -14.1%; for `Cc1ccc(CN2CCCn3nc(C(=O)NCCC(C)C)cc3C2=O)cc1` it is inactive: -1.75%. For `COC(=O)c1sc(-c2ccccc2)cc1NC(=O)c1cccc(F)c1` the value was inactive: -14.3%; for `COc1ccc(CNCCSc2nnnn2-c2ccccc2)cc1`, inactive: -4.69%; for `COc1ccccc1-n1cc(-c2ccc(C)cc2)nc1S(=O)(=O)CC(=O)Nc1ccccc1C(F)(F)F`, inactive: 6.56%. The figure for `COc1ccc(CC(=O)Nc2ccc3nc(Nc4cccc(Cl)c4)cc(C)c3c2)cc1OC` is inactive: -12.2%; for `Cc1ccc(S(=O)(=O)N2CCC(Oc3ccc(-n4cnnn4)cc3)CC2)cc1` it is inactive: -8.83%. Turning to `CCn1cc(S(=O)(=O)c2cc(C)cc(C)c2)c(=O)c2cc(F)c(N3CCOCC3)cc21`, the “activation” value was inactive: -18.4%. As for `O=C(CCCN1CC=C(n2c(=O)[nH]c3ccccc32)CC1)c1ccc(F)cc1`, the “activation” value is inactive: -16.2%. For `CCOc1ccccc1-c1nc(-c2ccc(-c3ccccc3)nc2OCC)no1`, the “activation” value is inactive: -17.7%.

Turning to `COc1ccccc1NC(=O)CSc1nnc(-c2cccc(Cl)c2)o1`, the “activation” value is inactive: -16.3%.

Regarding `COc1cc(OC)c(NC(c2nnc(-c3ccccc3)o2)c2ccc(F)cc2Cl)cc1Cl` (stereo not given), the “activation” value is inactive: -12.9%. The figure for `COc1ccc2nc(N(Cc3cccnc3)C(=O)CCc3ccccc3)sc2c1` is inactive: -10.1%. The figure for `COc1ccccc1Nc1c2c(nc3ccc(NC(=O)/C=C/c4cccc(OC)c4OC)cc13)CCCC2` is inactive: -27.3%; for `Cc1ccc(Nc2c3c(nc4nncn24)CCC3)cc1` it is inactive: -6.08%. For `CCc1ccc(-n2nnc(-c3nc(-c4ccccc4)no3)c2C)cc1` the value was inactive: -6.36%; for `COc1ccc(CCNC(=O)c2ccc3c(c2)N(Cc2cccc(C)c2)C(=O)c2ccccc2S3(=O)=O)cc1OC`, inactive: 5.09%. In the case of `Cc1ccc(C)c(N(C)C(=O)c2cn(C)c(=O)c3ccccc23)c1`, the “activation” value is inactive: 8.08%.

With `CCOC(=O)c1c(Oc2ccc(C(=O)OC)cc2)nnc(-c2ccccc2)c1-c1ccccc1`, the “activation” value was inactive: -15%. `Cc1ccc(CCNC(=O)CCc2cn(Cc3ccccc3C)c3ccccc23)cc1`: the “activation” value was inactive: -5.44%.

For `COc1cc(NC(=O)Cn2c(SCc3ccc(F)cc3)nc3cccnc32)cc(OC)c1`, the “activation” value was inactive: -15.9%. Regarding `Cc1cc(C)cc(-n2cnc3cc(C(=O)NCCc4ccccc4)ccc32)c1`, the “activation” value was inactive: -16.7%. The figure for `Brc1csc(CN2CCc3nc(Nc4ccccc4)ncc3C2)c1` is inactive: -5.74%. Consider `Cc1cccc(NC(=O)c2cc(S(=O)(=O)N3CCCCC3)c[nH]2)c1C`, for which the “activation” value is inactive: -12.2%. The figure for `Cc1cccc(Cn2c(SCc3ccc(C(=O)N4CCCCCC4)cc3)nc3ccncc32)c1` is inactive: -26.7%; for `COc1cc(CN(C(=O)c2cc3ccccc3oc2=O)C2CCS(=O)(=O)C2)cc(OC)c1OC` (stereo not given) it is inactive: -9.66%.

For the compound `O=C(c1cccc(Cl)c1)n1nc(-c2ccco2)nc1NCc1cccs1`, the “activation” value is inactive: -15.9%. With `O=C(CNC(=O)c1ccccc1Cl)OCc1cc(=O)n2ccsc2n1`, the “activation” value is inactive: -14%. The figure for `Cc1ccc(CNC(=O)c2ccc3c(c2)nc(C)n3-c2cccc(F)c2)cc1` is inactive: -6.57%; for `CCOc1ccc(NC(=O)CSC2=Nc3ccccc3C3=NC(CCC(=O)NCc4ccccc4)C(=O)N23)cc1` (stereo not given) it is inactive: -18.6%. In the case of `CC(NC(=O)c1ccc2c(c1)CCN2S(C)(=O)=O)c1ccccc1` (stereo not given), the “activation” value is inactive: -12.5%.

In the case of `Cc1c(Cl)cccc1NC(=O)c1cccc(NC(=O)N2CCSc3ncccc32)c1`, the “activation” value is inactive: -13.4%.

Consider `CCCCOc1ccc(-c2nn(-c3ccccc3)cc2C2NC(=O)NC(C)=C2C(=O)OCC)cc1` (stereo not given), for which the “activation” value is inactive: -27.5%. For `Cc1cc(C(F)(F)F)n2nc(-c3ccc(Br)cc3)cc2n1`, the “activation” value is inactive: -12.2%. For the compound `Cc1ccc(C(=O)N2c3ccc(C)cc3C(C)(c3ccccc3)CC2(C)C)cc1` (stereo not given), the “activation” value was inactive: -10.7%. On to `COc1ccc(OCC(=O)NCc2ccc3c(c2)CCN3C(=O)c2ccccc2)cc1`, for which the “activation” value was inactive: -26.8%. The figure for `COc1ccccc1N1CCN(c2ncnc3c2cnn3-c2cc(Cl)ccc2C)CC1` is inactive: -13.8%. For `CCc1ccc(C(=O)c2cn(CC(=O)Nc3cccc(OC)c3)c3ccc(OC)cc3c2=O)cc1`, the “activation” value was inactive: -20.8%. The figure for `Cc1cc2oc(C(=O)Nc3ccc(S(N)(=O)=O)cc3)cc(=O)c2cc1C` is inactive: -18.6%. For `O=C(NCCc1ccccc1)c1cnc2sc(N3CCCCCC3)nn2c1=O` the value was inactive: -3.38%.

Consider `O=C(c1cc2ccccc2oc1=O)N1CCN(c2ccc(Cl)cc2)CC1`, for which the “activation” value was inactive: -1.76%. Take `CCOC(=O)c1ccc(N2C(=O)c3[nH]nc(-c4ccc(C)cc4)c3C2c2cccc(F)c2)cc1` (stereo not given): the “activation” value was inactive: -2.79%. As to `Cc1ccc(CSc2nc3ccc(NC(=O)COc4ccccc4)cc3s2)cc1`, the “activation” value was inactive: -15.1%. For `CC(=O)N[C@@H](CO)C(=O)N[C@@H](CC(=O)O)C(=O)N[C@@H](CCCCN)C(=O)N1CCC[C@H]1C(=O)O` (Ac-SDKP-OH) the value was inactive: -13.2%; for `CCc1cccc(NC(=O)CN2C(=O)COc3ccc(S(=O)(=O)Nc4ccccc4)cc32)c1`, inactive: 6.65%. For `Cc1ccc(NC(=O)c2ccc(-c3cccc(Cl)c3C)o2)cc1`, the “activation” value was inactive: 5.85%. The figure for `CCc1ccc2nc(N(CCN(CC)CC)C(=O)c3ccco3)sc2c1` is inactive: -17.4%; for `COc1ccc(OC)c(CNC(=O)c2cc3c(-c4ccc(OC)c(OC)c4)nn(C)c3s2)c1` it is inactive: -17.3%; for `Cc1ccc(OCc2nc(-c3ccc(C(=O)N4CCN(c5ccccc5F)CC4)cc3)oc2C)cc1` it is inactive: -14.8%. For `Cn1nc(C(=O)NCc2ccc(Cl)cc2)c2c1-c1ccccc1S(=O)(=O)C2` the value was inactive: -9.5%; for `Cc1cccc(-n2ncc(C(=O)N3CCN(c4ccc(Cl)cc4)CC3)c2C2CCN(C(=O)OC(C)(C)C)CC2)c1`, inactive: -6.89%; for `COc1ccc(CNC(=O)Cn2c(SCC(=O)Nc3ccc(OC)cc3)nc3ccccc32)cc1`, inactive: -12.2%. For the compound `O=C1OC(C(=O)Nc2cccc(Br)c2)Cc2ccccc21` (stereo not given), the “activation” value was inactive: 4.21%. With `Cc1cccc(N2C(=O)N(CC(=O)C(C)(C)C)c3ccccc3S2(=O)=O)c1C`, the “activation” value is inactive: -4.53%. For `Cc1ccc(C)c(NC(=O)CN2CCCN(Cc3cccc(Cl)c3)S2(=O)=O)c1`, the “activation” value is inactive: -8.68%. Consider `COc1ccc(Cl)cc1NC(=O)c1cc(S(=O)(=O)NC2CCCCCC2)ccc1F`, for which the “activation” value was inactive: -14.5%. For `CN(C)S(=O)(=O)N(CC(=O)NCCSCc1ccccc1)c1ccccc1` the value was inactive: -0.891%; for `CCCCCn1c(=O)[nH]c2cc(C(=O)Nc3cc(C)cc(C)c3)ccc2c1=O`, inactive: -6.94%. On to `CCc1ccc(Sc2cc(C(=O)NCc3ccccc3OC)c3ccccc3n2)cc1`, for which the “activation” value is inactive: 7.36%. For `Cc1cccc(NC(=O)CSc2cn(CC(=O)N3CCCCCC3)c3ccccc23)c1` the value was inactive: -3.73%; for `Cc1cc(OC(C)C(=O)Nc2c(C(=O)c3ccc(F)cc3)oc3ccccc23)ccc1Cl` (stereo not given), inactive: -8.48%.

As to `COC(=O)c1ccc(OCC2c3cc(OC)c(OC)cc3CCN2C(=O)Cc2ccc(OC)cc2)cc1` (stereo not given), the “activation” value was inactive: -21.8%.

For `CCc1ccc(Sc2cc(C(=O)NCc3cccc(OC)c3)c3ccccc3n2)cc1`, the “activation” value is inactive: -9.79%. For `COc1ccc(C2NC(=O)N(C)C3=C2C(=O)N(c2cccc(Cl)c2)C3)cc1` (stereo not given) the value was inactive: -6.34%; for `CCn1c(=O)cc(SCC(=O)NCc2ccc(F)cc2Cl)c2ccccc21`, inactive: -16.6%. The figure for `CCOc1ccc(N2CC(NC(=O)C(=O)c3c[nH]c4ccccc34)CC2=O)cc1` (stereo not given) is inactive: 2.73%; for `COc1ccc(OCC(=O)Nc2nnc(S(=O)(=O)N3CCc4ccccc43)s2)cc1` it is inactive: -3.52%; for `Cc1cccc(C)c1Nc1c(-c2ccccc2F)nc2cccc(C)n12` it is inactive: -17.6%.

On to `CCOC(=O)c1ccccc1NC(=O)C1CCN(c2ncnc3c2nc2n3CCCCC2)CC1`, for which the “activation” value was inactive: 1.69%.

`CCOc1ccc(C(=O)/C=C/c2cn(CC(O)CN3CCCCCC3)c3ccccc23)cc1` (stereo not given): the “activation” value is inactive: -17.9%. For `CCCCN(CC)CCNC(=O)c1c(C)oc2ncnc(N3CCOCC3)c12` the value was inactive: -12.7%. The figure for `COc1ccc2[nH]c(=O)c(CN(C(=O)c3cccc(Cl)c3)c3ccccc3C)cc2c1` is inactive: -19.1%; for `CCOc1ccc(C(=O)c2cn(CC(=O)Nc3ccc(OC)cc3)c3cc4c(cc3c2=O)OCCO4)cc1` it is inactive: -9.29%. The figure for `Cc1ccc2oc3c(c(=O)c2c1)C(c1ccc(O)cc1)N(Cc1ccc2c(c1)OCO2)C3=O` (stereo not given) is inactive: -19.4%; for `CCC1(C)CC(=O)c2c(ccc3oc(C(=O)NCc4ccccc4)c(C)c23)O1` (stereo not given) it is inactive: -21.8%.
